# Results as given in PubChem BioAssay AID504832 (National Center for Advancing Translational Sciences (NCATS), 2011).
# Out of some 310,000 compounds screened, about 18,000 (5.8%) were called active. The shares of active, inactive and inconclusive entries below differ from those in the screen. Calls follow the shape of the dose curve; as a rule, active = well fitted inhibition curve with a large enough effect; inconclusive = small, poorly fitted or top-dose-only effect, or another doubt; inactive = no such curve, though single readings can be large or run the other way. Potencies of inconclusive entries are left out as doubtful fits.
# Experiment: Primary qHTS for delayed death inhibitors of the malarial parasite plastid, 48 hour incubation
# Settings: P. falciparum luciferase growth in erythrocytes; series mostly up to 28.7 µM; activity change, negative = inhibition: at the top concentration
# Outline: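 Growth was read as firefly luciferase luminescence after a 48 h, 37 C, 5% CO2 exposure of compounds to reporter-bearing P. falciparum cultures (0.1% parasitemia, 2% hematocrit final) in Albumax-supplemented RPMI 1640.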
# % is scaled to controls: 0 for no effect and ±100 for the full control effect; potency is read from the fitted curve at half-maximal effect; tags tell the direction and shape of the fitted curve.
Structure (SMILES),Potency,"activity change, negative = inhibition"
Cc1ccc(Cn2ccc(NC(=O)c3cc(-c4ccco4)on3)n2)cc1,active: 10.4 µM,–
CC(=O)N1CCc2cc(N=NC3=C(O)CCCC3=O)ccc21,–,inactive: 30.9%
OC(COc1ccccc1)Cn1c2ccccc2c2ccccc21 (stereo not given),"inconclusive [inhibitor, single point]",–
Cc1ccc(-n2c(SCC(=O)Nc3cccc(S(=O)(=O)NC4=NCCCCC4)c3)nc3ccccc3c2=O)cc1C,"inconclusive [inhibitor, partial curve]",–
Cc1c(CC(=O)N2CCC(C(=O)O)CC2)c(=O)oc2cc3c(cc12)CCC1(CCCCC1)O3,"inconclusive [inhibitor, partial curve]",–
Cn1cc(Cl)c(/C(N)=N/OC(=O)c2ccccc2C(F)(F)F)n1,–,inactive: 117%
CCCCOc1ccc(C(=O)Nc2ccc(S(=O)(=O)Nc3cc(C)on3)cc2)cc1OC,"inconclusive [inhibitor, single point]",–
CC1(NC(=O)Cc2csc(-c3cccc(Cl)c3)n2)CCS(=O)(=O)C1 (stereo not given),–,inactive: 2.32%
Cc1ccc2nc(N/N=C/c3ccccc3C#N)nc(-c3ccccc3)c2c1,"inconclusive [inhibitor, partial curve, poor fit]",–
COc1ccc(NC(=O)c2cc(-c3ccco3)nc3ccccc23)cc1S(=O)(=O)N1CCOCC1,"inconclusive [inhibitor, single point]",–
CCOC(=O)c1cnc(-n2nc(C)cc2C)nc1NNc1nc(-c2ccccc2)cc(-c2ccccc2)n1,active: 1.47 µM,–
CC1CC(C)CN(CC(=O)Nc2cc(S(=O)(=O)N3CCOCC3)ccc2N2CCCC2)C1 (stereo not given),"inconclusive [inhibitor, single point]",–
CCOC(=O)c1c(S(=O)(=O)Nc2ccc(C)c(F)c2)c(C)n(C)c1C,–,inactive: 12.4%
CCN(CC)C(=O)C1CCN(S(=O)(=O)c2ccc3c(c2)CCCN3C(=O)C2CCC2)CC1,"inconclusive [inhibitor, partial curve]",–
CC(=O)O[C@]1(C(C)=O)CC[C@H]2[C@@H]3C=CC4=CC(=O)C=C[C@]4(C)[C@H]3CC[C@@]21C,active: 11.7 µM,–
Cc1nc(N2CCN(c3ccccc3)CC2)[nH]c(=O)c1CCC(C)C,"inconclusive [inhibitor, partial curve, poor fit]",–
CCc1cc(=O)oc2cc(OCc3ccc(C(=O)O)o3)ccc12,–,inactive: 92%
O=C(O)CCc1nn2c3ccccc3n(Cc3ccccc3)c2nc1=O,–,inactive: 24.5%
CSc1cccc(N=C2C(=O)Nc3ccccc32)c1,"inconclusive [inhibitor, single point]",–
Nn1c(COc2ccccc2)nnc1SCc1cc(=O)[nH]c2ccccc12,–,inactive: 0.314%
COc1cc(/C=C(/Sc2nnc(-c3ccc(F)cc3)o2)C(=O)O)ccc1OC(F)F,–,inactive: -5.48%
Cc1ccc(Oc2ccc(NC(=O)c3ccco3)cc2)cc1,active: 0.928 µM,–
COC(=O)CCc1nc2c(C#N)c(-c3ccc(Cl)cc3)ccn2n1,"inconclusive [inhibitor, single point]",–
COC(=O)c1cc(NC(=O)c2ccc([N+](=O)[O-])cc2)c(=O)oc1C,–,inactive: -40.8% [at 1.15 µM]

Structure (SMILES),Potency,"activity change, negative = inhibition"
O=C(N/N=C\c1cn(-c2ccccc2)nc1-c1ccccc1)c1ccc(Br)o1,active: 9.28 µM,–
CCn1c(SCC(=O)Nc2cccc(NC(=O)c3cccs3)c2)nnc1-c1ccncc1,"inconclusive [inhibitor, partial curve, poor fit]",–
COc1ccc(S(=O)(=O)N2CCCCCC2)cc1NC(=O)Cc1ccccc1F,"inconclusive [inhibitor, single point]",–
CCSc1nc2sc3c(c2c(=O)[nH]1)CCCC3,–,inactive: 12.5%
O=C(NCCCN1CCC(Cc2ccccc2)CC1)C1CCN(S(=O)(=O)N2CCC3(CC2)OCCO3)CC1,"inconclusive [inhibitor, single point]",–
S=P(Nn1cnnc1)(c1ccc(Br)cc1)c1ccc(Br)cc1,"inconclusive [inhibitor, single point]",–
O=C(OCC(=O)N1CCN(C(=O)c2ccco2)CC1)c1ccc(Cl)cc1,–,inactive: -0.699%
CCOC(=O)NNc1ccc2nonc2c1[N+](=O)[O-],"inconclusive [inhibitor, single point]",–
O=C(CNC(=O)c1ccccc1Br)NCCSc1ccc(Br)cc1,"inconclusive [inhibitor, single point]",–
CCN1CCN(c2cc(C)c3cc(NC(=O)c4ccc(C)c(C)c4)ccc3n2)CC1,active: 2.08 µM,–
Cc1nn(C)c(C(=O)Nc2ccn(C34CC5CC(CC(C5)C3)C4)n2)c1[N+](=O)[O-],"inconclusive [inhibitor, partial curve, poor fit]",–
CN(CC(=O)Nc1ccccc1Cl)C(=O)COC(=O)Cc1ccc(F)cc1,–,inactive: 35%
COc1cc2c(cc1O)[C@H](Cc1ccc(Oc3cc(C[C@@H]4NCCc5cc(OC)c(O)cc54)ccc3O)cc1)NCC2,active: 0.738 µM,–
CCOc1cc(-c2noc(CCCC(N)=O)n2)cc(Br)c1OC,"inconclusive [inhibitor, partial curve, poor fit]",–
CC(C(=O)N1CCc2ccccc21)N(C)CC(=O)Nc1ccccc1Cl (stereo not given),"inconclusive [inhibitor, single point]",–
C=CC(C)(C)c1[nH]cnc1/C=C1\NC(=O)C(C(C)C)NC1=O (stereo not given),"inconclusive [inhibitor, single point]",–
Cc1ccc(S(=O)(=O)N2CCCCC2)cc1NC(=O)COC(=O)c1cc[n+]([O-])cc1,–,inactive: -12.7%
Oc1ccc(N2CCN(C(c3ccncc3)c3nnnn3C3CCCC3)CC2)cc1 (stereo not given),"inconclusive [inhibitor, single point]",–
Cc1nn(C)c(Cl)c1CN1CCCC(CCC(=O)NCc2ccccc2F)C1 (stereo not given),–,inactive: 9.1%
C=CCc1cccc(/C=N/NC(=O)CCC(=O)Nc2ccc(F)cc2)c1O,–,inactive: -2.28%
COc1ccccc1-c1cc(C(F)(F)F)c(C#N)c(=O)[nH]1,–,inactive: -25.2%
O=C(Cn1c(NCCCO)nc2ccccc21)c1ccc([N+](=O)[O-])cc1,"inconclusive [inhibitor, single point]",–
CC1CCN(C2=C(NS(=O)(=O)c3ccc(Br)cc3)C(=O)c3ccccc3C2=O)CC1,"inconclusive [inhibitor, single point]",–
COc1ccc(NC(=O)CN(C)C(=O)c2ccc(NS(=O)(=O)c3ccc(C)c([N+](=O)[O-])c3)cc2)cc1,"inconclusive [inhibitor, single point]",–

Structure (SMILES),Potency,"activity change, negative = inhibition"
COc1ccc(-n2c(C)cc(-c3csc(NC(=O)c4ccc(S(=O)(=O)N(C)C)cc4)n3)c2C)cc1,"inconclusive [inhibitor, single point]",–
CN(C)CCN(CC1CCCN(Cc2ccccc2F)C1)C(=O)Cc1ccc(F)c(F)c1 (stereo not given),"inconclusive [inhibitor, single point]",–
COC(=O)CSc1nc(N2CCOCC2)c2c(c1C#N)CCCC2,"inconclusive [inhibitor, single point]",–
O=C1OC(c2ccc(Br)cc2)=N/C1=C\N1CCCCC1,–,inactive: 106%
O=c1[nH]c(=S)[nH]c(O)c1N=Nc1ccc(S(=O)(=O)N2CCOCC2)cc1,"inconclusive [inhibitor, partial curve]",–
O=C(Nc1nnc(C2CC2)s1)C1Cc2ccccc2CN1S(=O)(=O)c1ccccc1F (stereo not given),"inconclusive [inhibitor, full curve, poor fit]",–
O=C(NCCc1ccccc1F)C1CCC(=O)N(Cc2ccccc2F)C1 (stereo not given),–,inactive: 20.1%
Cc1ccc(N2C(=O)N(CC(=O)Nc3ccc(C)cc3C)C(=O)C2C)cc1 (stereo not given),–,inactive: -0.15%
CCC(C)[C@H]1CNCCN1CCc1cc(C(F)(F)F)cc(C(F)(F)F)c1 (stereo not given in full),"inconclusive [inhibitor, partial curve, poor fit]",–
O=C(NCC1CCCO1)C(=O)c1c[nH]c2ccccc12 (stereo not given),–,inactive: 68.8%
COCCNC(=S)N1CCN(c2cccc(C(F)(F)F)c2)CC1,–,inactive: -3.76%
O=C1c2cccnc2C(Nc2ccc(Br)cc2)N1Cc1cccs1 (stereo not given),–,inactive: 11.6%
COC(=O)c1sccc1NC(=O)Nc1ccc(F)cc1,–,inactive: 28.1%
COc1cc(NC2CCCCC2O)c2nc(-c3ccc(Cl)cc3)ccc2c1 (stereo not given),active: 1.85 µM,–
Cc1ccc(C(=O)NCc2ccc3c(c2)OCO3)c(C)c1,–,inactive: 12.9%
CC(C)OCCCN1CN(S(=O)(=O)c2cccc(Cl)c2)c2nc3ccccc3nc21,"inconclusive [inhibitor, partial curve, poor fit]",–
COC(=O)C1=C(c2cccc3c2S(=O)(=O)c2ccccc2-3)C[C@@H]2CC[C@H]1N2C(=O)N1CCc2cc(OC)c(OC)cc2C1,active: 3.7 µM,–
COc1ccc(-c2noc(CSc3nc(N)c(-c4ccccc4)c(=O)[nH]3)n2)cc1OC,–,inactive: 10.4%
[N-]=[N+]=N[C@@H](CCN1CC[C@H](NC(=O)OCc2ccccc2)CCC1=O)c1ccccc1,"inconclusive [inhibitor, full curve]",–
Cc1cccn2c(=O)c(C(=O)NCCCN3CC(C)CC(C)C3)c(O)nc12 (stereo not given),active: 2.08 µM,–
Cc1ccc(-c2nnc(SC(C)C(=O)NCC3CCCO3)nc2-c2ccc(C)cc2)cc1 (stereo not given),active: 13.1 µM,–
CN(C(=O)c1ccc(COc2ccccc2Cl)o1)c1ccccc1,"inconclusive [inhibitor, partial curve, poor fit]",–
